# Assay results reported in a collection of fitness landscapes (doi:10.1016/j.celrep.2020.107928).
# Whole data set: some 81,000 sequences, median “one-hybrid fitness for binding parS DNA” near -0.17, cut for the highest 2% near 0.51. This is one part of the list.
# B1: Caulobacter ParB omega fusion; a variant is named by its letters at X, in order, B8GW30 (parent)
# chain: MESVVVGEPGMSEGRRGLGRGLSALLGEVDAAPAQAPGEQLGGSREAPIEILQRNPDQPRRTFREEDLEDLSNSIREKGVLQPILVRPSPDTAGEYQIVAGERAWRAAQRAGLKTVPIMVRELDDLAVLEIGIIENVQRADLNVLEEALSYKVLMEKFERTQENIAQTIGKSXSHVANXMRLLXLPDEVQSYLVSGELTAXHARAIAAAADPVALAKQIIEGGLSVRETEALARKAPNLSAGKSKGGRPPRVKDTDTQALESDLSSVLGLDVSIDHRGSTGTLTITYATLEQLDDLCNRLTRGI
# Variants of: B1
# Test: one-hybrid fitness for binding parS DNA (scaled: cognate 1, non-cognate 0); higher = stronger binding
# Settings: with parS DNA site
# Procedure, shortened: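 Fitness is the rescaled log change in variant-to-wild-type read ratio, measured by Illumina sequencing of plasmids before and after bacterial one-hybrid selection. The scale puts cognate at 1 and non-cognate at 0. Selection of Caulobacter ParB libraries, four specificity codons randomised, took place in E. coli USO with a HIS3 reporter, site 19 bp from the promoter, over 48 hours at 37°C on M9-minus-histidine with 0.1 mM IPTG and 5 mM 3-AT.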
row,Variant,one-hybrid fitness for binding parS DNA
1,PDKL,≤ 0.2
2,TGNQ,≤ 0.2
3,RPHE,≤ 0.2
4,RVHT,0.927
5,GHCW,≤ 0.2
6,QTTK,≤ 0.2
7,TIES,≤ 0.2
8,AYYN,≤ 0.2
9,QCYI,≤ 0.2
10,IFWS,≤ 0.2
11,NIYS,≤ 0.2
12,KSPY,≤ 0.2
13,CKAT,≤ 0.2
14,YCHW,≤ 0.2
15,RGCG,0.558
16,TGAP,≤ 0.2
17,SQDV,≤ 0.2
18,CCAD,≤ 0.2
19,VLKR,≤ 0.2
20,QTHQ,≤ 0.2
21,RMCV,≤ 0.2
22,VKLI,≤ 0.2
23,TGKM,≤ 0.2
24,RQWR,≤ 0.2

row,Variant,one-hybrid fitness for binding parS DNA
1,PSGQ,≤ 0.2
2,MSEA,≤ 0.2
3,QQMK,≤ 0.2
4,QVRA,≤ 0.2
5,TVCI,≤ 0.2
6,MREA,≤ 0.2
7,QAMA,≤ 0.2
8,VNNI,≤ 0.2
9,QAVY,≤ 0.2
10,YGVR,≤ 0.2
11,CSGG,≤ 0.2
12,ESNS,≤ 0.2
13,QPCV,≤ 0.2
14,DNPC,≤ 0.2
15,HLST,≤ 0.2
16,HKMM,≤ 0.2
17,YAPR,≤ 0.2
18,HDQT,≤ 0.2
19,AFTW,≤ 0.2
20,QDLD,≤ 0.2
21,TRST,≤ 0.2
22,PYTI,≤ 0.2
23,QHKA,≤ 0.2
24,LGMY,≤ 0.2

row,Variant,one-hybrid fitness for binding parS DNA
1,YQTA,≤ 0.2
2,PCPS,≤ 0.2
3,ELWR,≤ 0.2
4,EAPY,≤ 0.2
5,TVQL,≤ 0.2
6,DMMG,≤ 0.2
7,YGRC,≤ 0.2
8,KRET,≤ 0.2
9,ESTS,≤ 0.2
10,YPLF,≤ 0.2
11,GVWN,≤ 0.2
12,TEEC,≤ 0.2
13,TYNS,≤ 0.2
14,TSTR,≤ 0.2
15,SRMW,≤ 0.2
16,WGRY,≤ 0.2
17,HNLS,≤ 0.2
18,CTQL,≤ 0.2
19,STEA,≤ 0.2
20,VNWG,≤ 0.2
21,VWKV,≤ 0.2
22,QKIG,≤ 0.2
23,AVSG,≤ 0.2
24,QSNM,≤ 0.2

row,Variant,one-hybrid fitness for binding parS DNA
1,HRPN,≤ 0.2
2,NQQS,≤ 0.2
3,QHSN,≤ 0.2
4,QSAA,≤ 0.2
5,AHCV,≤ 0.2
6,GGRQ,≤ 0.2
7,TIHD,≤ 0.2
8,MMRS,≤ 0.2
9,ASVL,≤ 0.2
10,RFAG,0.941
11,NNIG,≤ 0.2
12,NHWR,≤ 0.2
13,CNRE,≤ 0.2
14,RWGP,≤ 0.2
15,NTYD,≤ 0.2
16,QTHI,≤ 0.2
17,RPNN,≤ 0.2
18,CDDA,≤ 0.2
19,DPHC,≤ 0.2
20,QWMR,≤ 0.2
21,FKAC,≤ 0.2
22,KPAT,≤ 0.2
23,FTVP,≤ 0.2
24,NYYS,≤ 0.2

row,Variant,one-hybrid fitness for binding parS DNA
1,PTGG,≤ 0.2
2,QCLD,≤ 0.2
3,QTVY,≤ 0.2
4,QWGF,≤ 0.2
5,HVQG,≤ 0.2
6,GCCT,≤ 0.2
7,MYPS,≤ 0.2
8,LVAG,≤ 0.2
9,QRCF,≤ 0.2
10,RFQT,0.8
11,CLCC,≤ 0.2
12,RCEK,≤ 0.2
13,HMSV,≤ 0.2
14,PSQP,≤ 0.2
15,RWSW,≤ 0.2
16,RPNP,≤ 0.2
17,GRSV,≤ 0.2
18,IRCM,≤ 0.2
19,ARNR,≤ 0.2
20,TSLG,≤ 0.2
21,VVFN,0.254
22,FTLD,≤ 0.2
23,NMYE,≤ 0.2
24,VWQT,≤ 0.2

row,Variant,one-hybrid fitness for binding parS DNA
1,MNHR,≤ 0.2
2,KTQG,≤ 0.2
3,KDAR,≤ 0.2
4,GQPV,≤ 0.2
5,TNAP,≤ 0.2
6,QKSV,≤ 0.2
7,MTTF,≤ 0.2
8,GYAS,≤ 0.2
9,STNE,≤ 0.2
10,AERS,≤ 0.2
11,YGSY,≤ 0.2
12,KNQS,≤ 0.2
13,KWEI,≤ 0.2
14,RFFG,0.776
15,RPTA,≤ 0.2
16,HNYR,≤ 0.2
17,PSKA,≤ 0.2
18,TPFV,≤ 0.2
19,NRSV,≤ 0.2
20,PMPR,≤ 0.2
21,SSMP,≤ 0.2
22,WILR,≤ 0.2
23,RTTG,1
24,MLHT,≤ 0.2

row,Variant,one-hybrid fitness for binding parS DNA
1,DEHS,≤ 0.2
2,CSAC,≤ 0.2
3,TMSD,≤ 0.2
4,PGYG,≤ 0.2
5,LPMI,≤ 0.2
6,ADSR,≤ 0.2
7,SDDM,≤ 0.2
8,AGTN,≤ 0.2
9,YEAS,≤ 0.2
10,YKPK,≤ 0.2
11,RLNE,≤ 0.2
12,GICG,≤ 0.2
13,PNEC,≤ 0.2
14,CLPD,≤ 0.2
15,LHDW,≤ 0.2
16,TYPV,≤ 0.2
17,TFHD,≤ 0.2
18,QDTY,≤ 0.2
19,CLIS,≤ 0.2
20,TRIN,≤ 0.2
21,PTAG,≤ 0.2
22,TMWR,≤ 0.2
23,RPVN,≤ 0.2
24,PTFG,≤ 0.2

row,Variant,one-hybrid fitness for binding parS DNA
1,IMLG,≤ 0.2
2,LWPH,≤ 0.2
3,DKCH,≤ 0.2
4,EASL,≤ 0.2
5,LPGD,≤ 0.2
6,LHSK,≤ 0.2
7,PLVL,≤ 0.2
8,NAHR,≤ 0.2
9,ELEF,≤ 0.2
10,LKKA,≤ 0.2
11,IHPM,≤ 0.2
12,GIST,≤ 0.2
13,CIMS,≤ 0.2
14,VEMW,0.21
15,AYTG,≤ 0.2
16,GSAK,≤ 0.2
17,EAPQ,≤ 0.2
18,HTNP,≤ 0.2
19,QIML,≤ 0.2
20,SKYT,≤ 0.2
21,MRLS,≤ 0.2
22,PQAL,≤ 0.2
23,TDWR,≤ 0.2
24,LTWW,≤ 0.2

row,Variant,one-hybrid fitness for binding parS DNA
1,VDSV,≤ 0.2
2,RMDK,≤ 0.2
3,WRVG,≤ 0.2
4,KARC,≤ 0.2
5,ETES,≤ 0.2
6,QAVA,≤ 0.2
7,QMTN,≤ 0.2
8,VVKL,≤ 0.2
9,TFEV,≤ 0.2
10,TLQI,≤ 0.2
11,KKTT,≤ 0.2
12,CFEL,≤ 0.2
13,VDSI,≤ 0.2
14,TKGL,≤ 0.2
15,RNQD,≤ 0.2
16,KNTA,≤ 0.2
17,RRYR,≤ 0.2
18,AYWT,≤ 0.2
19,RMLV,≤ 0.2
20,SMIG,≤ 0.2
21,IHNT,≤ 0.2
22,SPHT,≤ 0.2
23,RVWS,1.05
24,KHYE,≤ 0.2

row,Variant,one-hybrid fitness for binding parS DNA
1,SQWF,≤ 0.2
2,AVYG,≤ 0.2
3,ACSY,≤ 0.2
4,IPCG,≤ 0.2
5,PPYW,≤ 0.2
6,AYLI,≤ 0.2
7,RKNV,≤ 0.2
8,DTRW,≤ 0.2
9,KAKA,≤ 0.2
10,YMRT,≤ 0.2
11,KHRA,≤ 0.2
12,QMEL,≤ 0.2
13,SRAA,≤ 0.2
14,DRPY,≤ 0.2
15,DPHY,≤ 0.2
16,VQRC,≤ 0.2
17,ACYN,≤ 0.2
18,DSLF,≤ 0.2
19,RSCS,0.995
20,GPDV,≤ 0.2
21,PTRP,≤ 0.2
22,DNYS,≤ 0.2
23,MAQE,≤ 0.2
24,EALI,≤ 0.2

row,Variant,one-hybrid fitness for binding parS DNA
1,ECVT,≤ 0.2
2,RELF,≤ 0.2
3,DRLN,≤ 0.2
4,LVGI,≤ 0.2
5,PSCF,≤ 0.2
6,QNQG,≤ 0.2
7,KWKG,0.238
8,KQHL,≤ 0.2
9,RNFF,≤ 0.2
10,MLHC,≤ 0.2
11,YPKT,≤ 0.2
12,DVTK,≤ 0.2
13,PCRD,≤ 0.2
14,HAAH,≤ 0.2
15,CYKT,≤ 0.2
16,NFTF,≤ 0.2
17,IEPH,≤ 0.2
18,CAEW,≤ 0.2
19,PVCF,≤ 0.2
20,GHLE,≤ 0.2
21,PNAW,≤ 0.2
22,MCPT,≤ 0.2
23,NDPL,≤ 0.2
24,YDKS,≤ 0.2

row,Variant,one-hybrid fitness for binding parS DNA
1,GTCG,≤ 0.2
2,QFCC,≤ 0.2
3,DLPC,≤ 0.2
4,GHRE,≤ 0.2
5,GMQT,≤ 0.2
6,RKRY,0.422
7,IHDP,≤ 0.2
8,LCGW,≤ 0.2
9,ARLV,≤ 0.2
10,ELVC,≤ 0.2
11,STRI,≤ 0.2
12,AMLT,≤ 0.2
13,SAQV,≤ 0.2
14,RFWA,0.481
15,ARDL,≤ 0.2
16,MAPG,≤ 0.2
17,LQEN,≤ 0.2
18,MTSK,≤ 0.2
19,NNCK,≤ 0.2
20,PVEG,≤ 0.2
21,SVTI,≤ 0.2
22,LLRR,≤ 0.2
23,TGSF,≤ 0.2
24,HSAD,≤ 0.2

row,Variant,one-hybrid fitness for binding parS DNA
1,ILLW,≤ 0.2
2,QNPA,≤ 0.2
3,TYTR,≤ 0.2
4,SHIA,≤ 0.2
5,ERDT,≤ 0.2
6,LHHF,≤ 0.2
7,RVHE,≤ 0.2
8,TYTD,≤ 0.2
9,FNWS,≤ 0.2
10,VRCV,≤ 0.2
11,RCRD,≤ 0.2
12,KETH,≤ 0.2
13,DQTR,≤ 0.2
14,GVTI,≤ 0.2
15,VVPM,≤ 0.2
16,CKNS,≤ 0.2
17,MLEG,≤ 0.2
18,RCGA,0.653
